Results as given in the supplement of paper PMC3334620.
In all, about 33,000 sequences were measured (“E-score (-0.5 to 0.5)”: median about -0.036, highest 2% from about 0.37 on). The list shows a part of the results.

These sequences were tested against T1, Yer064c (UniProt P40041) (assay: PBM E-score (8-mer binding enrichment) (E-score (-0.5 to 0.5)); higher = stronger / more preferred TF binding; most listed sequences are background and not binding sites). Settings: protein concentration: 200 nM; construct: GST-full length.
T1 sequence: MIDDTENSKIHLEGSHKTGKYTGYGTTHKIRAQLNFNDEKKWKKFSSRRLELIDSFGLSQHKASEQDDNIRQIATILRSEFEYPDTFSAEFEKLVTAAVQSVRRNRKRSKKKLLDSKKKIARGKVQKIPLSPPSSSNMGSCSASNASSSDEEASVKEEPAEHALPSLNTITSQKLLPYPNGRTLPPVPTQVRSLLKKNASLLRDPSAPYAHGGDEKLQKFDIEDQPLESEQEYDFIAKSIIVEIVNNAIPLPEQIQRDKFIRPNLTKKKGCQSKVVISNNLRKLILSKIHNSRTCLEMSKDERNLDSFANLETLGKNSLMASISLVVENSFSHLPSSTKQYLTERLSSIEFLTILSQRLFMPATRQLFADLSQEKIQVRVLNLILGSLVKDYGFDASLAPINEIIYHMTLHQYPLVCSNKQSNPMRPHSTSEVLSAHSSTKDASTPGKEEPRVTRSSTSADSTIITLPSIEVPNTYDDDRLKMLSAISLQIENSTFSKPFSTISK
How it was run: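 Yeast transcription factors, full-length or as DNA-binding domains, were expressed with a GST tag using PURExpress in vitro transcription/translation. At about 100-200 nM they were applied to universal all-10-mer Agilent arrays, double-stranded by primer extension on fresh or once-stripped slides. Fluorescent anti-GST detected bound protein, and masliner normalised the scans. E-scores for ungapped eight-base words, pooled with reverse complements, came from the Universal PBM Analysis Suite.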
For AGGACGAA, the “PBM E-score” value was -0.0374. AATGCCGT was tested, and the “PBM E-score” value was -0.0266. CGCAGTAG was tested, and the “PBM E-score” value was -0.0713. With AATCACTA the “PBM E-score” value was 0.373. With ATTGGGGA the “PBM E-score” value was -0.116. With CATGAGCC the “PBM E-score” value was 0.247. For TGCAGCCA, the “PBM E-score” value was -0.133. AGCCTTCA was tested, and the “PBM E-score” value was 0.0305. In the case of CTAGTGAC, the “PBM E-score” value is reported as 0.263. In the case of GCTTAACC, the “PBM E-score” value is reported as -0.0107. In the case of AACCACTA, the “PBM E-score” value is reported as -0.0904. GAGTAAGA was tested, and the “PBM E-score” value was 0.186. In the case of GGACGGGA, the “PBM E-score” value is reported as -0.138. For CGCTTTTA, the “PBM E-score” value was 0.0919. For GTTCCTGA, the “PBM E-score” value was -0.164. With AGTGACGC the “PBM E-score” value was -0.182. AATATGAT was tested, and the “PBM E-score” value was 0.246. In the case of ATCACGGC, the “PBM E-score” value is reported as 0.092. With AGTGCAGC the “PBM E-score” value was -0.0932. ACGATCGA was tested, and the “PBM E-score” value was -0.0606. CTAGAGGC was tested, and the “PBM E-score” value was -0.0949. CCGTCTCG was tested, and the “PBM E-score” value was -0.206. GTGCCGGA was tested, and the “PBM E-score” value was -0.148. CTGTCGGA was tested, and the “PBM E-score” value was 0.0886. For GGCATAAC, the “PBM E-score” value was -0.0939. In the case of AACATGGG, the “PBM E-score” value is reported as 0.00261. For AAATGCAT, the “PBM E-score” value was -0.0564. ATGACAGG was tested, and the “PBM E-score” value was -0.124. AGATGCTA was tested, and the “PBM E-score” value was -0.0713. With ACACGTGG the “PBM E-score” value was 0.0631. ACAAGTCA was tested, and the “PBM E-score” value was 0.374. With AGCAAGGC the “PBM E-score” value was -0.0972. For CCAATCGC, the “PBM E-score” value was -0.0891. ACCCTTGG was tested, and the “PBM E-score” value was -0.133. With TCCAGCCA the “PBM E-score” value was -0.198. For TACAGTGA, the “PBM E-score” value was 0.211. For TGCAGGCA, the “PBM E-score” value was -0.165. In the case of TATTCCGA, the “PBM E-score” value is reported as 0.0815. In the case of AACTTGCT, the “PBM E-score” value is reported as -0.108. With CGCATAAC the “PBM E-score” value was -0.173. With ATTACGTC the “PBM E-score” value was 0.101. For TACTGCAA, the “PBM E-score” value was -0.0632. In the case of ACCTGGAG, the “PBM E-score” value is reported as 0.0449. With CAGGCCTC the “PBM E-score” value was -0.2. For GCTCGACA, the “PBM E-score” value was -0.0118. CGAAACAC was tested, and the “PBM E-score” value was -0.028. GACTTCCC was tested, and the “PBM E-score” value was 0.32. In the case of AACAAGGC, the “PBM E-score” value is reported as -0.111. For CACGATTC, the “PBM E-score” value was 0.148. For CACGCGGC, the “PBM E-score” value was -0.0642. With CTAGAAAA the “PBM E-score” value was 0.102. With CTCTGTTC the “PBM E-score” value was -0.0566. For CAATACTC, the “PBM E-score” value was 0.147. ATGAGCTC was tested, and the “PBM E-score” value was 0.114. CGATGGGC was tested, and the “PBM E-score” value was 0.12. In the case of ACTGTCGC, the “PBM E-score” value is reported as 0.111. With AAGGACAC the “PBM E-score” value was -0.0571. With GCTAAAGA the “PBM E-score” value was 0.16. TCTGATAA was tested, and the “PBM E-score” value was 0.0493. For TATCCAAA, the “PBM E-score” value was 0.159. With GGTAAAAA the “PBM E-score” value was -0.0628. With GGCGGGAC the “PBM E-score” value was -0.122. For ACCTCGTC, the “PBM E-score” value was -0.0535. For CGCGCCAG, the “PBM E-score” value was -0.0825. With GTCCTTTA the “PBM E-score” value was 0.0876. GGCTTCGA was tested, and the “PBM E-score” value was -0.176. In the case of CACAAAGA, the “PBM E-score” value is reported as 0.0315. ACGTAGAT was tested, and the “PBM E-score” value was -0.211. In the case of AGGACCAC, the “PBM E-score” value is reported as -0.0615. In the case of GATTCCAC, the “PBM E-score” value is reported as 0.183. GGTGGAAA was tested, and the “PBM E-score” value was -0.269. With GTGCCTCA the “PBM E-score” value was -0.25. For GGATAATA, the “PBM E-score” value was -0.102. With CTAACATA the “PBM E-score” value was 0.161. With GTCGCAAC the “PBM E-score” value was 0.109. In the case of AAGGTGAC, the “PBM E-score” value is reported as 0.295. In the case of AAAGATTC, the “PBM E-score” value is reported as 0.291. For GGCACGGA, the “PBM E-score” value was -0.127. In the case of CTCTTGTA, the “PBM E-score” value is reported as 0.085. CCTCTCTA was tested, and the “PBM E-score” value was -0.15.
